Among all 150,000 compounds or so, about 540 (0.36%) showed an effect of 50% or more. The list shows a part of the results.
system: Plasmodium falciparum; experiment: Primary screen in NF54 nanoGlo assay, in single point, at 2uM, 72h; a lower Z score goes with more inhibition; format: functional, Erythrocyte; conditions: timepoint 72 hour

Row | SMILES | % Inhibition | Z score
1 | Cc1nonc1CNC(=O)CCC(=O)N1CCCCCC1 | -7% | 0.93
2 | CC1COC(c2ccccc2)C(C)N1C(=O)c1cnc2ccccc2n1 (configuration not stated) | -12% | 1.09
3 | CNS(=O)(=O)C[C@H]1CCCN1C(=O)CCc1ccco1 | -14% | 2.04
4 | CCOC(=O)c1cc(NC(=O)N2CCOCC2)c(C)nc1C | 9% | -1.05
5 | CCOC(=O)CCN(C(=O)COc1c(C)cccc1C)[C@@H](C)CC | -9% | 1.18
6 | CC(c1ccncc1)N(C)S(=O)(=O)C[C@H]1C[C@H]2CCCC[C@H]21 (some centres not stated) | -16% | 2.43
7 | OC[C@@H]1CCCN1Cc1csc(-c2ccc(Br)cc2)n1 | -2% | 0.39
8 | FC(F)(F)c1cnccc1NCc1nc2c([nH]1)CCCC2 | -3% | 0.49
9 | Cc1ccc(C2CN(Cc3cccs3)CC2CN(C(=O)c2ccccc2)C(C)C)cc1 (configuration not stated) | -1% | 0.12
10 | O=C(COc1cccc(Br)c1)NCC(=O)NC1CC1 | -7% | 0.6
11 | O=C(Nc1ccnn1CC1CC1)c1cc(C2CC2)[nH]n1 | 3% | -0.38
12 | CCN=C(NCc1nncn1C)NC[C@H](C)c1ccc(F)c(F)c1 | -10% | 1.32
13 | Cc1csc(CN(C)C(=O)CCc2nncn2C)n1 | 0% | -0.04
14 | CN(C)c1cccc(Cn2cnc3cn(C)nc3c2=O)c1 | -6% | 1.14
15 | Cc1ccc(S(=O)(=O)N(CC(=O)NCCN2CCOCC2)c2cccc(Cl)c2)cc1 | 24% | -2.66
16 | Cn1cc(-c2nsc(NC(=O)c3cn(C)nc3C(F)F)n2)cn1 | -9% | 1.15
17 | Cc1cccc2nc(CN[C@@H](C)c3ccncc3F)cc(=O)n12 | -8% | 1.51
18 | C[C@@H](CN1CC2(CCN(CCC(N)=O)CC2)OC1=O)c1ccccc1 | -23% | 2.3
19 | CC(C)CNC(=O)[C@H]1CCN(c2cnn(Cc3ccccc3)c(=O)c2)C1 | -1% | 0.09
20 | COc1cc(OC)c2ncc(C#N)c(N3CCN[C@@H](CO)C3)c2c1 | -4% | 0.61
21 | CN(Cc1ncc(C(C)(C)C)o1)c1ccccc1F | -4% | 0.42
22 | Cc1ccc(C)c(S(=O)(=O)NCCNC(=O)Cc2ccoc2)c1 | -5% | 0.64

Row | SMILES | % Inhibition | Z score
23 | CCn1ncnc1CN1C[C@H]2C[C@H](c3ccccc3)CC[C@@]2(C(=O)O)C1 | -14% | 2.57
24 | Cc1cc(N2CCN(S(=O)(=O)c3ccc(Cl)cc3)CC2)nc(N2CCOCC2)n1 | -3% | 0.31
25 | O=C(CC1CC2CCC1C2)NCCn1ccnn1 (configuration not stated) | 25% | -2.92
26 | Cc1nc(NCc2csc(C(C)(C)C)n2)n(C)n1 | -9% | 1.63
27 | CCCC(=O)N1CCCCC1C(=O)N1CCC(n2cc(C)cn2)C1 (configuration not stated) | -13% | 1.34
28 | O=C(CN1CCN(C(=O)Nc2ccc(Cl)cc2)CC1=O)NCc1ccccc1 | 1% | -0.11
29 | CS(=O)(=O)N1CC[C@H](c2nc3cc(F)ccc3[nH]2)C1 | 31% | -3.55
30 | Brc1ccc(-c2nnc(-c3ccc(Br)cc3)c3nocc23)cc1 | 31% | -3.99
31 | CN(Cc1ccccc1)[C@H]1CCOC2(CCN(C(=O)Cc3ccccc3)CC2)C1 | -8% | 1.1
32 | O=C(C[C@H](c1ccc(C(F)(F)F)cc1)c1c[nH]c2ccccc12)Nc1cc(C(F)(F)F)cc(C(F)(F)F)c1 | -10% | 0.95
33 | O=C(Nc1nc2[nH]c(-c3ccccc3)cc(=O)n2n1)c1ccccc1F | 7% | -1.2
34 | C/C=C/Cc1nc(C2CCOCC2)n[nH]1 | -1% | 0.16
35 | CC(C)c1nc(C(=O)N[C@@H](C)C(N)=O)cs1 | -9% | 1.83
36 | Cc1ccc(S(=O)(=O)N(C)CC2(O)CCCC2)s1 | -13% | 1.96
37 | CC(C)[C@H]1C(=O)NCCN1Cc1ccn(C2CCCC2)n1 | -12% | 1.17
38 | CCOCCCN=C(NCCOC)NCc1ccc(COC)cc1 | -8% | 1.11
39 | O=C(CS(=O)(=O)CC(=O)c1ccc2c(c1)NC(=O)CO2)Nc1ccccc1 | -2% | 0.28
40 | CC(c1cc(F)ccc1F)N1CC[C@H](O)C1 (some centres not stated) | -7% | 0.84
41 | CCCOc1ccc([C@H](C)NC(=O)N(C)CC2(C)COC2)cc1 | -11% | 1.47
42 | CN(CC1CCOCC1)C(=O)NCc1cc(-c2cccc(Cl)c2)no1 | -11% | 2.02
43 | COc1cccc(N(CC(=O)Nc2ccc(OC(F)(F)F)cc2)c2nc3ccccc3s2)c1 | -12% | 1.84
44 | CCCNC(=O)N1CCCN(c2nc(C)nc3c2c(C)nn3-c2ccccc2Cl)CC1 | -8% | 0.77

Row | SMILES | % Inhibition | Z score
45 | CCC(=O)N1CCc2[nH]cnc2C12CCN(C(=O)CCc1scnc1C)CC2 | 1% | -0.18
46 | CCOCCCNC(=O)C1CCN(c2nnc(C)c3c(C)n(-c4ccc(Cl)cc4)nc23)CC1 | 10% | -1.13
47 | CC(C)NC(=O)c1n[nH]c2c1CCCCCC2 | -15% | 2.26
48 | CC(=O)N1N=C(c2ccc(C)cc2)OC1(C)C | -2% | 0.26
49 | CCc1ccc(CN(Cc2cccnc2)Cc2ccc3c(c2)OCO3)nc1 | -9% | 1.34
50 | O=C(NC[C@@H]1C[C@H](F)CN1)c1ccc(-c2cn(-c3ccccc3)cn2)cc1 | -10% | 1.51
51 | CN(CCn1cnnc1)C(=O)c1cccc(Br)c1Cl | -2% | 0.28
52 | COc1ccc(NC(=O)Cn2c(N(C)Cc3ccccc3)nc(C)cc2=O)cc1Cl | -3% | 0.5
53 | CCCOC[C@H]1CCN(C(=O)c2cc(-c3ccc(OC)cc3)n[nH]2)C1 | -12% | 2.15
54 | CCn1c(-c2cccnc2)nc2cc(NC(=O)COC)cc(C(=O)NCc3nc(C)cs3)c21 | 12% | -1.51
55 | C=CCOc1ccc(-c2nc(=O)c(CCC(=O)NCc3cccnc3)n[nH]2)cc1OC | -13% | 1.29
56 | COc1ccsc1S(=O)(=O)NCc1cc(Cl)cn1C | 10% | -1.42
57 | COCCN1CCC(N2CCCN(C(=O)C3COc4ccccc4O3)CC2)C1=O (configuration not stated) | -13% | 2.29
58 | Cc1nc2ccc(CNC(=O)N3CCC(c4nnc(CO)n4C)CC3)cc2[nH]1 | 1% | -0.23
59 | O=C(NCCN1CC[C@H](N2CCOCC2)C1=O)c1ccccc1 | 29% | -3.52
60 | Cc1cc(OCC(F)(F)C(F)F)nc(N)n1 | 5% | -0.54
61 | COc1cc(Br)ccc1CN=C(N)N1CCOCC1 | -11% | 0.96
62 | CCOc1c(OC)cccc1-c1nc2c([nH]1)CCCNC2=O | 4% | -0.75
63 | CCOc1ccc(CNC(=O)c2cccc(NC(=O)c3nsc4ccccc34)c2)cc1OC | 4% | -0.68
64 | CCn1cc(CN(C)C(=O)Nc2ccc3c(c2)CCC3)cn1 | -4% | 0.61
65 | COc1ccccc1[C@@H]1C[C@H]1C(=O)N1CCCC(c2nc(C)no2)C1 (some centres not stated) | 4% | -0.57
66 | CCC1=NO[C@@H](CNCC(=O)Nc2ccc(Cl)c(OC)c2)C1 | 7% | -0.91

Row | SMILES | % Inhibition | Z score
67 | CN1CCCN(C(=O)C2=Cc3ccccc3OC2)CC1 | 3% | -0.34
68 | C[C@H](NCc1cnn(C(C)(C)C)c1)c1cn[nH]c1 | 2% | -0.32
69 | Cc1nnc(-c2cccc3ccccc23)o1 | -2% | 0.28
70 | O=C(Cc1ccccc1F)Nc1cc(S(=O)(=O)N2CCOCC2)ccc1Oc1ccc(F)cc1 | -10% | 1.83
71 | CC(=O)NCC(=O)Nc1cc(C2CCCC2)nn1C | -1% | 0.08
72 | O=C(COc1ccccc1)N1CC[C@H](N(CCCN2CCOCC2)C(=O)C2CCC2)C1 | -6% | 0.92
73 | CC(C)(C)OC(=O)N1CC2(CCCCCN2C(=O)c2cncnc2)C1 | -5% | 0.66
74 | COc1cccc(C(=O)N2CCCN(c3cc(-c4ccc(Cl)cc4)n[nH]3)CC2)c1OC | 9% | -0.9
75 | Cc1ccc(CN2CCC3(CC2)CN(c2ncccn2)C[C@@H]3CO)cc1C | -6% | 0.67
76 | CN(Cc1ccc(-n2cccn2)cc1)C(=O)Cc1cccc(O)c1 | -10% | 0.89
77 | Nc1ccc(-c2nnc(-c3ccccn3)[nH]2)cc1 | 2% | -0.33
78 | C#CCN(CC1CC1)C(=O)c1ccc2c(=O)n3c(nc2c1)CCCCCC3 | -9% | 0.96
79 | Cc1ncccc1C(=O)OC[C@H]1CCCCO1 | -12% | 1.71
80 | Cc1[nH]ncc1C(=O)NC1CCCC(F)C1 (configuration not stated) | 2% | -0.28
81 | Nc1ccc(C(=O)N2C[C@@H]3CCC[C@H](C2)C(=O)N3)cn1 | -2% | 0.24
82 | Cc1ccc([C@H]2CC(=O)Nc3c(S(=O)(=O)c4ccc(Cl)cc4)csc32)cc1 | -12% | 1.25
83 | Cn1cc(-c2ccc(CN3CCCC3)cn2)cn1 | 1% | -0.24
84 | CCOc1ccccc1CNc1cc(C(F)F)ncn1 | -10% | 1.75
85 | COCCN1CCC[C@H](C(=O)N2CCc3[nH]c(-c4ccccc4)nc3C2)C1 | 11% | -2.02
86 | Cc1csc(CNC(=O)c2ccoc2C)n1 | 4% | -0.82
